Measurements: PubChem BioAssay AID1508624 (National Center for Advancing Translational Sciences (NCATS), 2021)
Among all 48,000 compounds or so, about 120 (0.25%) were called active. Roughly 4% stayed inconclusive and do not appear here. Calls come from the whole dose curve; as a rule, active = well fitted activation curve with a large enough effect; inconclusive = small, poorly fitted or top-dose-only effect, or another doubt; inactive = no such curve, though single readings can be large or run the other way. The list shows a part of the results, in another mix than the full data. Where no call is shown, the source filed none.

Assay: Primary qHTS for Identification of Small Molecule Activators of Huntingtin-Antisense Promoter Activity; note: nearly all actives have a fitted effect of over 55% in size
Settings: HEK293 HTT-AS promoter firefly luciferase reporter, 24 h; activity change, positive = activation: at 57.5 µM (top of the series), percent change from vehicle, -100% = no light
Outline: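 Luminescence was read after Dual-Glo reagent and a 10 min room-temperature incubation. Values were normalized to vehicle (0% activity) and zero RLU (-100% activity). Reporter HEK293 cells had been exposed to compounds (up to 57.5 uM final) for 24 h.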
Potency is the fitted concentration of half-maximal effect.

| Structure (SMILES) | activity change, positive = activation | Potency |
| --- | --- | --- |
| COc1ccc(-c2cc(C(=O)Nc3ccc(C#N)cc3)no2)cc1 | -14.2% | – |
| Oc1cccc(C(Nc2ccccn2)c2ccc3cccnc3c2O)c1Cl (configuration not stated) | -1.78% | – |
| CCOC(=O)Cc1ccc(NC(=O)n2ncc3c(C)cccc32)cc1 | -64.7% | – |
| CC(=O)Nc1ccc(S(=O)(=O)Nc2cccc(-c3ccc(N4CCC(C)CC4)nn3)c2)cc1 | 31.5% | – |
| Cc1nn(CC(=O)NCCc2ccc(Cl)cc2)c(=O)c2cc3cc(F)ccc3n12 | -3.86% | – |
| Cc1cccc(C(=O)Nc2ccc(-c3nc4ccccc4s3)cc2Cl)c1 | inactive: 13.8% | – |
| CC1CCCCN1Cc1c(O)ccc2c(=O)c(-c3cccc(Cl)c3)c(C(F)(F)F)oc12 (configuration not stated) | -9.1% | – |
| CC(=O)c1c(C)oc2ccc(N(C(=O)Oc3ccccc3)S(=O)(=O)c3ccc(Br)cc3)cc12 | -17.1% | – |
| CCCCc1ccc(NC(=O)Cn2cnc3c2c(=O)n(C)c(=O)n3C)cc1 | -10.4% | – |
| COc1cccc(-c2cc(C(=O)Nc3cccnc3Cl)no2)c1 | 14.7% | – |
| CC1Cc2cc(S(=O)(=O)CCC(=O)Nc3ccc(OC(F)(F)F)cc3)ccc2N1C(=O)C1CC1 (configuration not stated) | -24.9% | – |
| COc1ccc(C2c3cc(OC)c(OC)cc3CC(=O)N2c2cccc(C#N)c2)cc1 (configuration not stated) | -6.3% | – |
| Cc1ccc(Cc2nc3ccccc3nc2SCC(=O)N2CCN(c3ccccc3F)CC2)cc1 | -13.2% | – |
| Cc1ccccc1NC(=O)CCc1c(C)nn(-c2ccc(N3CCCCC3)nn2)c1C | 18.6% | – |
| Cc1cc2nn(-c3ccc(F)cc3)nc2cc1NC(=O)c1ccc(OC(C)C)cc1 | inactive: -1.48% | – |
| CCc1ccc(CNC(=O)CCc2c(C)nn(-c3ccc(N4CCCCC4)nn3)c2C)cc1 | -23.7% | – |
| Cc1ccc(CNC(=O)CCS(=O)(=O)c2ccc3c(c2)CC(C)N3C(=O)C2CC2)cc1 (configuration not stated) | -10.6% | – |
| Cc1ccc(CNC(=O)C2CCN(S(=O)(=O)Cc3ccccc3)CC2)cc1 | -2.98% | – |
| O=c1oc2ccccc2n1CCCOc1ccccc1Cl | – | active: 7.94 µM |
| COc1cc(NC(=O)c2cc3c(=O)n(Cc4ccco4)ccc3nc2C)cc(OC)c1OC | -19.3% | – |
| COc1ccc(S(=O)(=O)Nc2cccc(-c3ccc(N4CCCCC4)nn3)c2)cc1F | 46.8% | – |
| O=C(NCc1ccccc1Cl)c1ccc2c(c1)NC(=O)C(CS(=O)(=O)Cc1ccc(Cl)cc1)N2 (configuration not stated) | -8.34% | – |
| COc1ccc2c(C)c(CCC(=O)NCc3ccccc3OC)c(=O)oc2c1 | 3.91% | – |
| CC(C)(C)C1CCc2c(sc(NC(=O)c3noc4c3CCCC4)c2C#N)C1 (configuration not stated) | -5.09% | – |
| O=c1c2oc3ccccc3c2n(Cc2ccccc2)c(=O)n1Cc1ccco1 | inactive: -15.5% | – |
| CCOC(=O)c1c(N)n(-c2cc(C)cc(C)c2)c2nc3ccccc3nc12 | -1.03% | – |
| Cc1ccc(-c2ccc(CCC(=O)O)n2-c2cccc(C)c2C)cc1 | -13.8% | – |
